Assay results as given in the supplement of paper PMC4996465.
Viability of KB3-1 and Nalm-6 cells after 48 h of drug alone (CellTiter-Glo), 11 doses over about 4.5 log units. % of DMSO wells, lower = more cell loss; AC50 from the fitted curve, lower = more potent. No active / inactive call. Nalm-6 was screened in two runs. AC50 is listed only for well-fitted inhibitory curves. KB3-1 is a HeLa-derived carcinoma line, Nalm-6 a B-cell precursor leukaemia line.

Columns and labels:
KB3-1 [1] = test: viability (% of DMSO control); higher = more viable cells
Experimental: (§1)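 Eleven-dose screen of the NCATS MIPE 3 library on cells without co-treatment; CellTiter-Glo after 48 h, as % of DMSO wells.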

Nalm-6 [2] = test: as above
Experimental: as §1

KB3-1 [3] = test: log AC50 of viability decrease (48 h) (log10 M); higher = less potent
Experimental: (§2)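 Eleven-dose screen of the NCATS MIPE 3 library on cells without co-treatment; CellTiter-Glo after 48 h. AC50 from the curve fit; only inhibitory curves of the better fit classes are listed.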

Nalm-6 [4] = test: as above
Experimental: as §2

| Structure (SMILES) | viability (KB3-1 [1]; 0.00078 µM) | viability (KB3-1 [1]; 0.00234 µM) | viability (KB3-1 [1]; 0.00702 µM) | viability (KB3-1 [1]; 0.0211 µM) | viability (KB3-1 [1]; 0.0632 µM) | viability (KB3-1 [1]; 0.19 µM) | viability (KB3-1 [1]; 0.569 µM) | viability (KB3-1 [1]; 1.71 µM) | viability (KB3-1 [1]; 5.12 µM) | viability (KB3-1 [1]; 15.4 µM) | viability (KB3-1 [1]; 46.1 µM) | viability (Nalm-6 [2]; run: 1, 0.00078 µM) | viability (Nalm-6 [2]; run: 1, 0.00234 µM) | viability (Nalm-6 [2]; run: 1, 0.00702 µM) | viability (Nalm-6 [2]; run: 1, 0.0211 µM) | viability (Nalm-6 [2]; run: 1, 0.0632 µM) | viability (Nalm-6 [2]; run: 1, 0.19 µM) | viability (Nalm-6 [2]; run: 1, 0.569 µM) | viability (Nalm-6 [2]; run: 1, 1.71 µM) | viability (Nalm-6 [2]; run: 1, 5.12 µM) | viability (Nalm-6 [2]; run: 1, 15.4 µM) | viability (Nalm-6 [2]; run: 1, 46.1 µM) | viability (Nalm-6 [2]; run: 2, 0.00078 µM) | viability (Nalm-6 [2]; run: 2, 0.00234 µM) | viability (Nalm-6 [2]; run: 2, 0.00702 µM) | viability (Nalm-6 [2]; run: 2, 0.0211 µM) | viability (Nalm-6 [2]; run: 2, 0.0632 µM) | viability (Nalm-6 [2]; run: 2, 0.19 µM) | viability (Nalm-6 [2]; run: 2, 0.569 µM) | viability (Nalm-6 [2]; run: 2, 1.71 µM) | viability (Nalm-6 [2]; run: 2, 5.12 µM) | viability (Nalm-6 [2]; run: 2, 15.4 µM) | viability (Nalm-6 [2]; run: 2, 46.1 µM) | log AC50 of viability decrease (KB3-1 [3]) | log AC50 of viability decrease (Nalm-6 [4]; run: 1) | log AC50 of viability decrease (Nalm-6 [4]; run: 2) |
| --- | --- | --- | --- | --- | --- | --- | --- | --- | --- | --- | --- | --- | --- | --- | --- | --- | --- | --- | --- | --- | --- | --- | --- | --- | --- | --- | --- | --- | --- | --- | --- | --- | --- | --- | --- | --- |
| O=C(Nc1cc(Cl)cc2c1[nH]c1cnccc12)c1cccnc1 [PS-1145] | 95.2% | 99% | 96% | 106% | 99.2% | 96.6% | 99.3% | 104% | 100% | 39.4% | 11.6% | 102% | 100% | 107% | 115% | 111% | 98.1% | 104% | 70.3% | 44.9% | 6.23% | 8.03% | 112% | 108% | 106% | 107% | 103% | 106% | 108% | 104% | 105% | 108% | 78.7% | -4.88 | -5.48 |  |
| Cc1ccc(Nc2nccc(N(C)c3ccc4c(C)n(C)nc4c3)n2)cc1S(N)(=O)=O [Pazopanib] | 101% | 102% | 105% | 105% | 100% | 104% | 99.9% | 95.7% | 88.8% | 89% | 57% | 104% | 105% | 107% | 112% | 108% | 108% | 93.6% | 95.6% | 83.9% | 79.6% | 14.7% | 101% | 99.2% | 101% | 108% | 109% | 99.8% | 93.1% | 90.5% | 87.8% | 93.8% | 11% | -4.68 | -4.68 |  |
| CCOc1cc2ncc(C#N)c(Nc3ccc(F)c(Cl)c3)c2cc1NC(=O)/C=C/CN(C)C [Pelitinib] | 98.2% | 102% | 100% | 99.1% | 99.3% | 85.6% | 81.8% | 77.9% | 50.4% | 50.2% | 1.76% | 110% | 112% | 121% | 117% | 116% | 112% | 80.7% | 60.7% | 43.2% | 4.65% | -0.799% | 104% | 108% | 105% | 106% | 112% | 98.8% | 80.3% | 67.5% | 47.2% | 4.8% | 0.00142% | -4.83 | -5.53 | -5.33 |
| NC/1=N/C(=O)C2=C([NH]C=C2CCC3=CC=C(C=C3)C(=O)N[C@@H](CCC(O)=O)C(O)=O)N1 [Pemetrexed disodium] | 111% | 109% | 113% | 108% | 99.1% | 95.6% | 93% | 83.4% | 81.9% | 81.3% | 80% | 123% | 118% | 113% | 95.7% | 59.6% | 33.4% | 22.8% | 19.9% | 20.2% | 16.5% | 11.3% | 102% | 109% | 105% | 96% | 50.2% | 20.1% | 14.1% | 9.76% | 8.74% | 6.79% | 3.85% | -6.73 | -7.33 | -7.23 |
| COc1cc([C@@H]2c3cc4c(cc3[C@H](O)[C@H]3COC(=O)[C@H]23)OCO4)cc(OC)c1OC [Picropodophyllin] | 103% | 105% | 74.5% | 26.8% | 25.2% | 25.8% | 22% | 22% | 19.9% | 17.4% | 17.5% | 106% | 100% | 10.5% | 14.4% | 13.5% | 13.2% | 14.4% | 10.6% | 12.4% | 13.9% | 16.5% | 112% | 101% | 8.46% | 12.5% | 8.82% | 7.91% | 7.95% | 5.91% | 6.69% | 7.54% | 7.91% | -8.08 | -8.43 | -8.43 |
| CC(C)(C)c1[nH]cnc1/C=c1\[nH]c(=O)/c(=C/c2ccccc2)[nH]c1=O [Plinabulin] | 99.3% | 98.1% | 92.1% | 31.8% | 27.7% | 29.2% | 28.1% | 27.7% | 24% | 24.4% | 30.4% | 112% | 105% | 76.7% | 21.5% | 13.4% | 15.8% | 15.7% | 15.1% | 15.2% | 11.2% | 3% | 113% | 115% | 64.7% | 13.3% | 9.98% | 10.6% | 11.3% | 9.86% | 11.9% | 8.44% | 3.11% | -7.93 | -8.03 | -8.13 |
| CCCCc1nc2cc(/C=C/C(=O)NO)ccc2n1CCN(CC)CC [Pracinostat] | 104% | 106% | 105% | 102% | 90.2% | 68% | 39.9% | 28.5% | 16.2% | 13.5% | 12.8% | 117% | 119% | 118% | 115% | 95.9% | 41% | 8.5% | 5.54% | 4.49% | 4.15% | 2% | 114% | 114% | 105% | 100% | 86.2% | 30.2% | 3.96% | 3.53% | 3.32% | 2.57% | 0.814% | -6.58 | -6.88 | -6.93 |
| OC[C@H](Cc1ccccc1)Nc1nc(Oc2ccc3c(c2)CCC3)nc2c1ncn2Cc1ccc(-c2ccccc2)cc1 [QS11] | 90.9% | 95.9% | 99% | 97.7% | 95.3% | 99.6% | 96.1% | 85.2% | 83.9% | 71.2% | 53.8% | 65.5% | 89.4% | 104% | 99.5% | 111% | 107% | 112% | 82.7% | 66.9% | 47.7% | 47.3% | 98.1% | 102% | 98% | 104% | 102% | 101% | 112% | 87.6% | 80% | 52.5% | 32.9% | -4.88 |  | -4.98 |
| COc1cc(Nc2ncc(F)c(Nc3ccc4c(n3)NC(=O)C(C)(C)O4)n2)cc(OC)c1OC [R406] | 103% | 107% | 109% | 103% | 101% | 106% | 99.1% | 90.7% | 80.1% | 80.4% | 51.7% | 117% | 130% | 122% | 132% | 113% | 121% | 113% | 94.5% | 82.5% | 72.7% | 15.3% | 102% | 114% | 112% | 109% | 110% | 108% | 103% | 94.6% | 81.9% | 68.9% | 2.44% | -4.78 | -4.78 | -4.73 |
| CNC(=O)c1cc(Oc2ccc(NC(=O)Nc3ccc(Cl)c(C(F)(F)F)c3)c(F)c2)ccn1 [Regorafenib] | 104% | 106% | 107% | 104% | 104% | 109% | 109% | 103% | 94.3% | 93% | 9.45% | 116% | 126% | 124% | 114% | 117% | 114% | 113% | 102% | 95.6% | 80.2% | 1.8% | 107% | 103% | 110% | 101% | 108% | 110% | 106% | 100% | 100% | 78.1% | 2.25% | -4.58 | -4.68 | -4.68 |
| C/C=C1\NC(=O)[C@H]2CSSCC/C=C\[C@H](CC(=O)N[C@H](C(C)C)C(=O)N2)OC(=O)[C@H](C(C)C)NC1=O [Romidepsin] | 99.2% | 41.8% | 20.7% | 15.6% | 15.5% | 16.5% | 15% | 15.3% | 12.2% | 12% | 7.6% | 114% | 31.7% | 9.08% | 8.57% | 8.88% | 8.86% | 8.67% | 8.86% | 7.85% | 8.16% | 4.1% | 115% | 26.5% | 7.23% | 8.83% | 6.52% | 7.18% | 6.15% | 7.28% | 5.56% | 4.92% | 1.19% | -8.73 | -8.78 | -8.78 |
| CN(C)C[C@@H]1CCn2cc(c3ccccc32)C2C(=O)NC(=O)C2c2cn(c3ccccc23)CCO1 (stereo partly specified) [Ruboxistaurin mesilate] | 95.3% | 98% | 96.7% | 94.7% | 90.6% | 96.3% | 93.4% | 84.6% | 84.2% | 79.1% | 1.73% | 90.7% | 113% | 98.5% | 94.9% | 100% | 97.6% | 104% | 82.9% | 81.7% | 82.8% | 1.44% | 104% | 111% | 104% | 103% | 103% | 99% | 105% | 98.4% | 91.8% | 63.5% | 1.73% | -4.63 | -4.63 | -4.73 |
| C1=C/COCc2cc(ccc2OCCN2CCCC2)Nc2nccc(n2)-c2cccc(c2)OCC/1 [SB1518] | 95.2% | 101% | 104% | 100% | 101% | 95.7% | 95.5% | 64.1% | 42.1% | 21.3% | 107% | 112% | 120% | 123% | 115% | 113% | 107% | 112% | 74.8% | 37.6% | 16.3% | 79% | 103% | 113% | 112% | 106% | 109% | 102% | 106% | 82.2% | 39.3% | 7.61% | 106% | -5.58 | -5.58 | -5.43 |
| CN1CCC(CNc2ccc3ncc(-c4cccc(OC(F)(F)F)c4)n3n2)CC1 [SGI-1776] | 102% | 107% | 106% | 109% | 107% | 103% | 104% | 94% | 89.5% | 46.5% | 1.63% | 94.8% | 106% | 113% | 104% | 107% | 104% | 94.2% | 89.9% | 83.1% | 46.6% | 2.21% | 108% | 108% | 108% | 108% | 113% | 73.7% | 103% | 95% | 90.9% | 71.2% | 2.45% | -4.78 | -4.78 | -4.68 |
